Data as given in PubChem BioAssay AID463173 (ICCB-Longwood Screening Facility, Harvard Medical School, 2010).
The campaign covered roughly 52,000 compounds. About 4,300 (8.3%) were called active. No stated cut-off is given here; in the data, active means survival mostly below about 52% (no sharp cut-off); inactive means mostly above about 56%. This is one part of the list.

Tested on: DeltatarO mutant
Test: growth inhibition of S. aureus wild type versus tarO mutant, primary screen, teichoic acid synthesis inhibitors, RN4220, OD600 (AID 463173)
Conditions: OD600, 18 h, hits give low values, screened at 18.75 µg/mL (by protocol)

| Compound | survival |
| --- | --- |
| COc1cc(NC(=O)CN2C(=O)C(c3ccc(C)cc3)=NC23CCCCC3)cc(OC)c1 | inactive: 96% |
| Cc1oc2ccc(O)c(CN3CCOCC3)c2c1C(=O)Nc1ccccc1 | inactive: 74% |
| Cc1ccc(CNc2ccc(-c3nc(C(C)C)no3)cc2[N+](=O)[O-])cc1 | inactive: 60% |
| Cc1ccc(-n2c(=O)c3c(c4cc(C)ccc4n3C)n(CC(=O)Nc3c(C)cccc3C)c2=O)cc1 | inactive: 123% |
| O=C(CCSCCc1ccccn1)Nc1cc(F)ccc1F | inactive: 79% |
| CCCCN(C)CCNC(=O)c1c(C)oc2ncnc(N3CCOCC3)c12 | inactive: 68% |
| Cc1ccc(NC(=O)c2cnn(-c3ccc(C)c(C)c3)c2C2CCN(C(=O)OC(C)(C)C)CC2)c(C)c1 | inactive: 109% |
| Cc1cccc(NC(=O)Cn2c(=O)n(CCC(C)C)c(=O)c3cccnc32)c1 | inactive: 115% |
| Cc1cccc(C(=O)Nc2cc3c(cc2N2CCCCC2)n(C)c(=O)c(=O)n3C)c1 | inactive: 94% |
| O=C(CCN1CCCCC1)c1ccccc1 | inactive: 87% |
| CC(=O)N1CCC2(CC1)OC(=O)C(C)=C2C(=O)Nc1cccc(Cl)c1C | inactive: 70% |
| CCCCC(=O)Nc1cc(C)c(O)c(-c2nc3ncccc3o2)c1 | inactive: 161% |
| CCOC(=O)Cn1cc(C#N)c2ccccc21 | inactive: 90% |
| O=C(CC1N=C2c3ccccc3N=C(SCc3ccccc3F)N2C1=O)NCCc1ccccc1 (stereo not drawn) | inactive: 69% |
| O=C1N=C2C=CC=CN2C(=O)C1Cc1ccccc1 (stereo not drawn) | inactive: 95% |
| CC1=C(C(=O)Nc2ccccc2)C(c2cccnc2)n2nc(SCc3ccccc3F)nc2N1 (stereo not drawn) | inactive: 65% |
| CCC(CC)C(=O)Nc1cc(-c2cccc(C)c2)nn1-c1ccccc1 | inactive: 94% |
| COc1cccc(CNC(=O)C2CCN(C(=O)N3CCOc4ccc(Cl)cc43)CC2)c1OC | inactive: 99% |
| COc1ccc(Cl)cc1NC(=O)c1cc(C)nc2c1c(C)nn2-c1ccccc1 | inactive: 109% |
| O=c1c2sc3ccccc3c2n(Cc2ccccc2F)c(=O)n1Cc1ccccc1 | inactive: 76% |

| Compound | survival |
| --- | --- |
| Cc1ccc(Cn2c(=O)n(Cc3ccco3)c(=O)c3sc4ccccc4c32)cc1 | inactive: 90% |
| O=c1c2cnn(-c3ccc(Cl)cc3)c2ncn1Cc1ccc(Cl)cc1Cl | inactive: 102% |
| Cc1nc2c(C(=O)NCc3ccccc3)cnn2c(C)c1Cc1ccc(F)cc1 | inactive: 83% |
| COc1ccccc1NC(=O)N1c2ccccc2Sc2ccccc21 | active: -6% |
| COc1ccc(OC)c(-n2nnc3c(sc4nc(C)c(Br)c(C)c43)c2=O)c1 | inactive: 59% |
| Cc1nc(C)c(-c2ccc(SCC(=O)Nc3ccc(Cl)c(Cl)c3)nn2)s1 | active: 46% |
| Cc1ccc(CCNC(=O)CCN2N=C(c3ccc(C)cc3)CCC2=O)cc1 | inactive: 107% |
| Cc1ccc(Cl)cc1Nc1nc2ccccc2c2nncn12 | inactive: 104% |
| Cc1ccsc1CCN1C(=O)N(c2ccccc2)C(=O)C1CC(=O)Nc1ccc(F)cc1 (stereo not drawn) | inactive: 114% |
| COc1ccc(CCC(=O)NCc2ccc3c(c2)CCN3C(=O)c2ccc(F)cc2)cc1 | inactive: 89% |
| COc1ccc(-c2nc3cc(NC(=O)Cc4ccc(Cl)cc4)ccc3o2)cc1OC | inactive: 47% |
| CC(C)CC(=O)Nc1nnc(S(=O)(=O)N2CCCCCC2)s1 | inactive: 109% |
| Cc1cccc(C)c1NC(=O)c1ccc2c(c1)N(Cc1cccc(Cl)c1)C(=O)c1ccccc1S2=O (stereo not drawn) | inactive: 105% |
| COc1ccc(-c2noc(CCC(=O)N(C)c3ccccc3C)n2)cc1 | inactive: 80% |
| COCCCNS(=O)(=O)c1cc(-c2onc(C)c2C)ccc1OC | inactive: 115% |
| COc1ccc(N2CCN(C(=O)CSc3n[nH]c(-c4ccccc4)n3)CC2)cc1 | inactive: 84% |
| COc1ccc(CNCCNC(=O)c2ccncc2)c(OC)c1OC | inactive: 99% |
| CN(C)C(=O)c1ccc(NC(=O)Cn2nnnc2-c2ccccc2F)cc1 | inactive: 108% |
| CCN(CC)C(=O)C1C(=O)N(C)C2(C)CC1c1ccccc1O2 (stereo not drawn) | inactive: 74% |
| O=C(Nc1ccc(-c2nc3cc(NC(=O)c4ccccc4Cl)ccc3o2)cc1)c1ccccc1Cl | inactive: 83% |

| Compound | survival |
| --- | --- |
| COc1ccc(Nc2c3c(nc4ccc(NC(=O)/C=C/c5cc(OC)c(OC)c(OC)c5)cc24)CCCC3)cc1OC | inactive: 66% |
| COc1cccc(C2(O)CCN(C(=O)c3cccs3)CC2)c1 | inactive: 57% |
| O=C(c1ccc(C(F)(F)F)cc1)N1CCC(c2noc(-c3ccc(S(=O)(=O)N4CCCC4)cc3)n2)CC1 | inactive: 85% |
| O=C1NC(=O)C(=Cc2ccc(N3CCCC3)o2)C(=O)N1 | inactive: 66% |
| NC(=O)c1ccccc1NC(=O)C1CCCN(c2ncnc3onc(-c4ccc(F)cc4)c23)C1 (stereo not drawn) | inactive: 71% |
| O=C(CCc1nc2cccnc2n1Cc1cccs1)Nc1cccc(C(F)(F)F)c1 | inactive: 65% |
| Cc1ccc(NC(=O)CN2C(=O)CCc3cc(S(=O)(=O)N4CCOCC4)ccc32)cc1N(C)C | inactive: 93% |
| O=C(NC1CCCC1)c1ccc2c(c1)N(Cc1ccc(C(F)(F)F)cc1)C(=O)c1ccccc1S2 | inactive: 84% |
| Cc1ccccc1Cn1c(=O)n(Cc2ccc3c(c2)OCO3)c(=O)c2oc3ccccc3c21 | inactive: 110% |
| COc1ccc(OC)c(-c2nc3c(C#N)c[nH]n3c2NC2CCCCC2)c1 | inactive: 89% |
| Cc1cccc(NC(=O)NC2CC3CCCC(C2)N3CC(C)C)c1 (stereo not drawn) | inactive: 94% |
| Nn1c(Nc2ccccc2)nc2sc3c(c2c1=O)CCCC3 | inactive: 96% |
| CC(=O)Nc1ccc2oc(-c3ccccc3)nc2c1 | inactive: 94% |
| CCCN(c1ccc(C(C)C)cc1)S(=O)(=O)c1ccc2c(c1)CCN2C(=O)CC | inactive: 105% |
| COc1ccccc1CNC(=O)Cc1c(C)c2c(cc(C)c3c(C)coc32)oc1=O | inactive: 71% |
| CN(C)c1ccc(CN(CC2CCCO2)C(=O)COc2ccccc2Cl)cc1 (stereo not drawn) | inactive: 45% |
| N#Cc1ccc(-c2cccs2)nc1SCc1c(F)cccc1Cl | active: 36% |
| Cc1ccccc1C(=O)N(Cc1ccc(N(C)C)cc1)Cc1ccco1 | inactive: 83% |
